Test results from the supplement of paper PMC12632987.
In all, about 4,500 sequences were measured (“median log2 fold change of GCK-ALFA target abundance (FLAG IP / Myc IP barcode read proportion)”: median about 0.078, lowest 2% from about -0.6 on). This is one part of the list.

B1: GBRAP_52_6212 (protein)
chain: MEARLEALADAALAAVRAGRLDEARALLRELVETLDDEELERFGAVLVERAEAAAPEDFDAVFRLAELLEEELEAQGKDEVLADDLLNRVAAALYKRELA
B2: GBRAP_39_5690 (protein)
chain: EEEEENEDVVSYLEGIAAKYLYETGISFEEALKRAKEVLEKYAKEHPELKPLVEELIELAEEKGEEAKLVLIGIAVLIEEGTPDEEIKEKIEKAINYFKS
B3: GBRAP_184_5193 (protein)
chain: KVLEYTLKSENLEETKAKMEELKKKAKEEKADLYLIAEFKEVTKEMIEALMETLKEIKENGYSKNITVLLEGKLTEEEIDLAWELADKAGVKLTIALDEE
B4: GBRAP_153_3944 (protein)
chain: GEEEERLLQEALELLERIKAEGGPEELIRALARLIKQLTEEQRLEVAREMNSLSEELVHRIFRVLATEEGFSVEELLAMTTELNEEHEAAALEAIVEAQK
B5: GBRAP_160_4073 (protein)
chain: SEEVEKLIKEIREIAEETIEFLKESNEEEQIAIVRMMAGDILMLVFEAPFMSDEDEEEVDKILEEYVKKLEENKDWSMEEKEELIREMAEEVEKKVKEAA
B6: GBRAP_172_5003 (protein)
chain: GVVLVELDLRGLSRDEAVARAEAAVRAAAAAHDADIVLAIAADTQETVDAVTAAARATAAALGRRLTVVADAVTTEAGAATIRAAARAEAINLQYEQEEE
B7: GBRAP_35_5509 (protein)
chain: STDDTTAEMLIAGIEDAVLALPDVDVETASAIANSYAKAAEELAEELKNNLENLKKLYEAMEKLGEAVKKNFGDSELAKKTLEKIEKVAKKLKELAKKAE
B8: GBRAP_128_3527 (protein)
chain: SLEEARERAAEVVERIKASTPEEAAEITAEWLDWLKTLSDEEVAAAAEVLEERLPELTAEKLDVVADVFRERRGEFSPEVQEEIAGVEVAALNEAEELEE
B9: GBRAP_125_3031 (protein)
chain: GAEAAAAALATIARALGFSDDDVEELVALARAHGFKGAMIALALAEGNEELADLLEKLTEEEVAAVLAELAAYLAAHPDLTPEEVLAKLLEIAKAAVAKS
B10: GBRAP_160_4247 (protein)
chain: EERIERIERDFREEAEVTLEALLELPKSQWAAIARAMAGNLVQIVIEDPNATDELEEAVDEKADELVERLLAAADASPEELRRLLEEGVEEIVETYRKLI
B11: GBRAP_74_6533 (protein)
chain: MEEIIEEINKLIESGKPEDLIKAIELALEELDKETRKEILDKIAKKVLENIDKFSAEEVEKLLDKWVEVELELEEEEWSDIQLEALAALAAKAVEYEEKE
B12: GBRAP_78_6732 (protein)
chain: ELKKLLEEALKVASEAARLAVHRVSNEVIAEIVEALSDLEEALELVEEGGDKEEIKEHLERAAEHIKKAIELLPESAEEIRKLLEEALKLVKEALKEVEK
B13: GBRAP_160_4287 (protein)
chain: SEELEKLIKEIDEIVEEALEEMEGQSREERANIVRVAGGEVVLLLSENPNVSDETEDKVDEIWDEVADRILANPDLTDEEIRALLLEAREKVKKLLKEDM
B14: GBRAP_160_4175 (protein)
chain: SEKLEEAEKKIKEIFEEAYKMMEGESAEERAAIVAVAFGEIILYLEEKGLLTDETEAKIDEIEDEAVEYILENPDLTEEELRELLEESAEKIIKALKENS
B15: GBRAP_35_5586 (protein)
chain: EDEELLLDTLEDLAEATIYAIKTEDIETVKALLETLIKYSEEAIELFKNNLEALEKLAELLEKVAKALKEYRSDNPEIQELLKKVEELLKKAKELAKKVK
B16: GBRAP_52_6070 (protein)
chain: MEKKIEELAKEITAALKAGDEEAALELLKKAIKELSKEEIKELLVKTAKLVAELDEETHERFVDVMDEVEDLLIEAGISEEEALLIVGDALAALAKAVAA
B17: GBRAP_166_4945 (protein)
chain: SLEEIREEAREFIREKAEEMKNANPEERLDLYAEIAEKLREAKEAGLPREELLELVREALELTKEAGGSVEQLVGVLFMFVDLSEEERDEVIKLAEEVKK
B18: GBRAP_160_3973 (protein)
chain: SEEVEELKKEIKELFDEAKKLIEGESYEERLTIIKVMVGDILLLADENPLISDEVEDKIDEIGDELIETIEKNPDLTDEEIKKLIDEAEEKILKTIDEAF
B19: GBRAP_128_3249 (protein)
chain: ANPEVVAYAESVVERLKAADVETAREIAEDFAEYLLTISVEDAEAAIDVVESRLGELSVEHLEILADVLREHRPKYSPEKANLVAGLEVAALNEAEEKEE
B20: GBRAP_128_3287 (protein)
chain: ADPELLEKVKELLEKIKNSDEEEARELAEELAELFGEVSVEEAIALAEIVEEKLPELTAEQLEILAEVLDEAMPAMTPEKAAIMADVASDALLEAEELEE
B21: GBRAP_80_6796 (protein)
chain: AEARLAAALARIEALDPELAARVRRIVELARAMGVSTEDLADFAEAVARLLELDPAKAAELVAELEELLEEEAARGDKANAEAVVRVYAGQALLEVEELE
B22: GBRAP_139_3695 (protein)
chain: SELEEKIEEARRLAEEMREDPEAALEAIVELINSVSEEEAEKLVEAIAEVLLELPLDEAERLADALIELAEERIEDEDKVDIVEATLNGALARRAYEEEK
B23: GBRAP_52_6041 (protein)
chain: MREEMRELAEEIVELMKEGKEEEARKRIKELVETKSEEELELLGEELAELAKKAEPEDLDYIMEVAIILADELIKAGYDEAFADDLLARVARAAVENLKK
B24: GBRAP_160_3983 (protein)
chain: SERYEKLKKFIDETFAEAKELIKGQSHEERVTIVEGYGGQVLMELMSDENVSDEAEDAVAAVIDALVAYLRANPDLTEAEIVALIDEARAKIKAILDKDF
B25: GBRAP_160_4370 (protein)
chain: KEELEKLAEEIEELKKEFKEEAKDLTPEEVVKLGLGVLAEVAALVWENEAVPEEVEEEIMEIIRKAEKELRENKDAPPEELVKIVEEAFEKIIELIKKAK
B26: GBRAP_11_2676 (protein)
chain: KKEKLKEIAELAKKAAKAVKKLLKEGVDNEKLLKEIEELLKKLKELTEKYADKGHQKLTEIAEELFKEALKDPENKEEYLKNLLAALEVLRANVEEEIDE
B27: GBRAP_128_3459 (protein)
chain: STEEVKAYTAETMEKMKEASLEEFRKLATELAERLLTLSLEEVEAAVEVIEERLPELTAEKLEVLAEVFDEAAPRFSPEKRALVAEVRSEALLLAEELEE
B28: GBRAP_14_3775 (protein)
chain: MEEAIKILEETAKEIVELLAEIAPEKAAEFKAAVEEVLKATIERIKETGDAIAAAEEGRDELRARVAAILADADPETRARALAVVDVEYGKAILELEELE
B29: GBRAP_166_4940 (protein)
chain: SLEEMLEELRELIREKVERFPELNEEERLELAIEIGEALRELREAGASDEDILELLTEFAKLLLEAGLDARRLVAAVILEAELDEELEDRVWDEIDKLEK

Each binder was assayed against GABARAP, O95166 (assay: median log2 fold change of GCK-ALFA target abundance (FLAG IP / Myc IP barcode read proportion) (log2 ratio); each designed protein is fused to an ALFA-tag nanobody in HEK293 cells to bring the named protein to FLAG-tagged glucokinase (GCK); Myc marks an untargeted standard; higher = target protein stabilised (more abundant)). Details: target protein: 3xFLAG-MCP-GCK-ALFA reporter; HEK293 landing pad (RPLP).
Sequence of GABARAP, O95166 (O95166 whole entry, the tested form may be a part): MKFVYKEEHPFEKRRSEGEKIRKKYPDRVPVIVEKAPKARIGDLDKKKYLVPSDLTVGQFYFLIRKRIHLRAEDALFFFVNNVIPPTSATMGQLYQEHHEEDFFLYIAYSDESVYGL
Summary of the method: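 Sequencing of reverse-transcribed, amplified circular RNA barcodes from anti-FLAG and anti-Myc immunoprecipitates provided the readout for an ALFA-nanobody-fused binder library recombined into HEK293 landing-pad cells. Those cells were induced with 2 μg mL^−1 doxycycline, transfected with a plasmid expressing a FLAG-tagged target and a Myc-tagged standard, and lysed after 48 h. Target abundance is the per-binder median log2 ratio of FLAG to Myc barcode read proportions. Only barcodes at a proportion of ≥10^−7 in both replicates and binders with ≥3 barcodes per replicate were kept, with a 10^−6 pseudocount added before the two replicates were pooled.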
For B1, the “median log2 fold change” value was 0.0822.
For B2, the “median log2 fold change” value was 0.102.
With B3 the “median log2 fold change” value was -0.131.
For B4, the “median log2 fold change” value was 0.23.
B5 was tested, and the “median log2 fold change” value was -0.399.
In the case of B6, the “median log2 fold change” value is reported as 0.259.
With B7 the “median log2 fold change” value was 0.302.
With B8 the “median log2 fold change” value was 0.0454.
For B9, the “median log2 fold change” value was -0.0155.
With B10 the “median log2 fold change” value was -0.554.
B11 was tested, and the “median log2 fold change” value was -0.132.
In the case of B12, the “median log2 fold change” value is reported as 0.0328.
B13 was tested, and the “median log2 fold change” value was -0.142.
For B14, the “median log2 fold change” value was -0.178.
B15 was tested, and the “median log2 fold change” value was 0.012.
With B16 the “median log2 fold change” value was -0.473.
For B17, the “median log2 fold change” value was 0.177.
In the case of B18, the “median log2 fold change” value is reported as -0.605.
B19 was tested, and the “median log2 fold change” value was 0.0533.
For B20, the “median log2 fold change” value was -0.0876.
In the case of B21, the “median log2 fold change” value is reported as 0.0415.
B22 was tested, and the “median log2 fold change” value was 0.0499.
With B23 the “median log2 fold change” value was -0.345.
In the case of B24, the “median log2 fold change” value is reported as -0.0759.
With B25 the “median log2 fold change” value was 0.287.
In the case of B26, the “median log2 fold change” value is reported as 0.141.
In the case of B27, the “median log2 fold change” value is reported as 0.127.
B28 was tested, and the “median log2 fold change” value was 0.291.
For B29, the “median log2 fold change” value was 0.187.
